Results are given in words; binding and its absence hold for the method and conditions named. In cells and extracts the contact can be indirect. Some binding calls cover weakened binding; strength is not graded here. Each block holds one molecule with its values, some of them ahead of it.
Experiments:
[1] = molecular target: T1, HsANKRD11 truncation T6 (aa 1160-1470) (human) (UniProt Q6UB99); assay: co-IP; V5-tagged HsANKRD11 truncations T1-T6 transfected into 293T cells and precipitated; blots for HDAC3 and Hs65K; T6 and T2 also after knock-down of HDAC3
T1 sequence: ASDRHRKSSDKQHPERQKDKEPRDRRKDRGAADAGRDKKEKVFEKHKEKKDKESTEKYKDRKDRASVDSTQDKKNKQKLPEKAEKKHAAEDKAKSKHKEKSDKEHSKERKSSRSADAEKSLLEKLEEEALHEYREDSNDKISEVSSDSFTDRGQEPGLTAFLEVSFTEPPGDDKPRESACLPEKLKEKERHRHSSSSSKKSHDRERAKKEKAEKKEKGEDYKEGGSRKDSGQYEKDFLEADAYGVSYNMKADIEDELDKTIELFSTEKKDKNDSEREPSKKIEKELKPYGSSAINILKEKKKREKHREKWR

The chains behind the UniProt entries cited, without tags or fusion partners.
UniProt Q92769: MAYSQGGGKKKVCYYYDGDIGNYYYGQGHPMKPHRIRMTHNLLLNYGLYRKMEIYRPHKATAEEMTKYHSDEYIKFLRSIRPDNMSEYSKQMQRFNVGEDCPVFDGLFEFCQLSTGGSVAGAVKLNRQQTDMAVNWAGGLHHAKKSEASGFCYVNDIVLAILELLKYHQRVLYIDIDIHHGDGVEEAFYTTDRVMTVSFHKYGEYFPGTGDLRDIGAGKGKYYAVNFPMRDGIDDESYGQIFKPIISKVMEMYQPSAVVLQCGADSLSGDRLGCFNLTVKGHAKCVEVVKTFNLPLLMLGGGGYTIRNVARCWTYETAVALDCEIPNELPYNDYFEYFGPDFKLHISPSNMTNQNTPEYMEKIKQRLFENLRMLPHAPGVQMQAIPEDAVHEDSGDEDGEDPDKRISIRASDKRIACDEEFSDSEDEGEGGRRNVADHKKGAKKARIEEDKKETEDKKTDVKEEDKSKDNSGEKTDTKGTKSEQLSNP
UniProt Q13547: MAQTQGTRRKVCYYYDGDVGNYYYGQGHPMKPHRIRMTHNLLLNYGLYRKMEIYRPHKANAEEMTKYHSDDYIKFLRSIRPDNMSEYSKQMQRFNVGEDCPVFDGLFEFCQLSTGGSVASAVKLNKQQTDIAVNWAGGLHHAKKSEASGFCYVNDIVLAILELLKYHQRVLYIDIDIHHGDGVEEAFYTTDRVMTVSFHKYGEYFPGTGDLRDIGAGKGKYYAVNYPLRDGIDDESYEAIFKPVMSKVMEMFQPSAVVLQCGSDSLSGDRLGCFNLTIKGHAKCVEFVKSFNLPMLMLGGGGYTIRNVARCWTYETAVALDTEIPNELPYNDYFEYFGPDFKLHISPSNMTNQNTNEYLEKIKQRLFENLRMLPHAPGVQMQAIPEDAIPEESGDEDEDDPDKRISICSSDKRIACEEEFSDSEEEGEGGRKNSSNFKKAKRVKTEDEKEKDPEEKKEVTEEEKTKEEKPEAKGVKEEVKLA
UniProt O15379: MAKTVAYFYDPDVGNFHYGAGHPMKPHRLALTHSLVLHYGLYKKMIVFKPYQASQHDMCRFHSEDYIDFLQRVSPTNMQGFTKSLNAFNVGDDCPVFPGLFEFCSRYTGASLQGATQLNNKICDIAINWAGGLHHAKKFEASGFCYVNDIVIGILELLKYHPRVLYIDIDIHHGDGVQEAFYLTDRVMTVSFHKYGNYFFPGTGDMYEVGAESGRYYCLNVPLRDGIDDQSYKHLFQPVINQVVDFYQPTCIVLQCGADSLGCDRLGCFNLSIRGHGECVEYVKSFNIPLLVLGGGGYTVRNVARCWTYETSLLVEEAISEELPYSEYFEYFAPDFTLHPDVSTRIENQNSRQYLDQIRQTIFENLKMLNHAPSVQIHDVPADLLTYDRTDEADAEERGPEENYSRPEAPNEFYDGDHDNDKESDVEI
UniProt O75376: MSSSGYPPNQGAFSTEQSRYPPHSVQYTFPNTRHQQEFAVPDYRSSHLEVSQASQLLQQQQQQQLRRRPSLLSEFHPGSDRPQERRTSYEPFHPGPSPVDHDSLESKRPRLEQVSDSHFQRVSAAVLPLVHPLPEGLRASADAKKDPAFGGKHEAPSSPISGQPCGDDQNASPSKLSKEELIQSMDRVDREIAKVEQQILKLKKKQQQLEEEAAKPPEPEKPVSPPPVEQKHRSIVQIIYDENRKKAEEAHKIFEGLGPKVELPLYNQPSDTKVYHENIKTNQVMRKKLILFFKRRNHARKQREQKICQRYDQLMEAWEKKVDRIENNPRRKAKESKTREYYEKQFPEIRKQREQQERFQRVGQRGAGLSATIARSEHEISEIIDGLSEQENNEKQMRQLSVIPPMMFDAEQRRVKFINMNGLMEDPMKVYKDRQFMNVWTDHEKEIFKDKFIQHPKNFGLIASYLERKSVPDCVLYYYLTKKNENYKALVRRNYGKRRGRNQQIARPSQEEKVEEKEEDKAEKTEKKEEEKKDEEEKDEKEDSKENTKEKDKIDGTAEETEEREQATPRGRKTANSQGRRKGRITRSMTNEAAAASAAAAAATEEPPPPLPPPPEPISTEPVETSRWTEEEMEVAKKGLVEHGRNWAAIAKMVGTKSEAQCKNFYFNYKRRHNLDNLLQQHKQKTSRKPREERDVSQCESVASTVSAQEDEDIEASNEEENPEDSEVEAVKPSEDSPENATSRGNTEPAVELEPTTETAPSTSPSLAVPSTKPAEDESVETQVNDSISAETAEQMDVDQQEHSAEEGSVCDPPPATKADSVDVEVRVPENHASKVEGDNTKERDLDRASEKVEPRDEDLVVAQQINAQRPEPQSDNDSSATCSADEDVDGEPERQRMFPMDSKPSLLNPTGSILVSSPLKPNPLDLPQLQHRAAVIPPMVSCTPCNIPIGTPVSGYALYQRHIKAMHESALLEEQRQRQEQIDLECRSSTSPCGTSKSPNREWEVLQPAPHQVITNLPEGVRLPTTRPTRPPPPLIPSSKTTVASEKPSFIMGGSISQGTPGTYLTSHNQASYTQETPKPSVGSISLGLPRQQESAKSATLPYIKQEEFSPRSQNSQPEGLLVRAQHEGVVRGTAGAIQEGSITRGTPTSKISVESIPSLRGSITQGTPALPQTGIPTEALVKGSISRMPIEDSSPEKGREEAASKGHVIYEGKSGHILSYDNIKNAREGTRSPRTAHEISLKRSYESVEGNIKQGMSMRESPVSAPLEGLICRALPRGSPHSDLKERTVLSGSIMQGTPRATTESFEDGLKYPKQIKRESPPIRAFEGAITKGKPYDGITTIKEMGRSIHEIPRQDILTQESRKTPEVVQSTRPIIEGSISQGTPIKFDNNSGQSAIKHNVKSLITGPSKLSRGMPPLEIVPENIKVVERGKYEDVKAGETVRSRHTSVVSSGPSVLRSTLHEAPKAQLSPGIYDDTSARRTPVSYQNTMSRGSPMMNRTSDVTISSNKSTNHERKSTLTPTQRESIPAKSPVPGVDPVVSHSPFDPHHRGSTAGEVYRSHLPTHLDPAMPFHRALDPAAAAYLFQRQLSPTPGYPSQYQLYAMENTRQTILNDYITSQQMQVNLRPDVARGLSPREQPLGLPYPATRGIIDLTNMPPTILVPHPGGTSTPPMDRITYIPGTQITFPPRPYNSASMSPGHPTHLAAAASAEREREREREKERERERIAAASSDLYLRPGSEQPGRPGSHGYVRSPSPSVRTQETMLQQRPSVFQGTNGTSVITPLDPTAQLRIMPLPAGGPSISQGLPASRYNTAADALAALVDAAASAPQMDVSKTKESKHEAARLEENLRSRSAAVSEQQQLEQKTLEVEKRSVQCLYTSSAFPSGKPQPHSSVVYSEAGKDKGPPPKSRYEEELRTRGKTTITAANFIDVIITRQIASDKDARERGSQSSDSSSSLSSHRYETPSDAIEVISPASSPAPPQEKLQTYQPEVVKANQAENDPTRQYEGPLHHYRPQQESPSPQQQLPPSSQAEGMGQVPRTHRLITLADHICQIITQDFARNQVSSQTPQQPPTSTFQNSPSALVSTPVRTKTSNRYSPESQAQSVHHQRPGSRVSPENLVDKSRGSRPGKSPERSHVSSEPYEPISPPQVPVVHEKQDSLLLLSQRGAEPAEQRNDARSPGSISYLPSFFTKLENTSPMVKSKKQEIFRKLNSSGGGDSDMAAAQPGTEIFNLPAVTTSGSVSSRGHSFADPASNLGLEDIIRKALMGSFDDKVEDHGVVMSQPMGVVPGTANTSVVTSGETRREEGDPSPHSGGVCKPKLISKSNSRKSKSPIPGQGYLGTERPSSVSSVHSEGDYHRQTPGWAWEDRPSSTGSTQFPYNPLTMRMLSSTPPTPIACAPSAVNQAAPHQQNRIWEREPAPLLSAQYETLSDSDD
UniProt Q15788: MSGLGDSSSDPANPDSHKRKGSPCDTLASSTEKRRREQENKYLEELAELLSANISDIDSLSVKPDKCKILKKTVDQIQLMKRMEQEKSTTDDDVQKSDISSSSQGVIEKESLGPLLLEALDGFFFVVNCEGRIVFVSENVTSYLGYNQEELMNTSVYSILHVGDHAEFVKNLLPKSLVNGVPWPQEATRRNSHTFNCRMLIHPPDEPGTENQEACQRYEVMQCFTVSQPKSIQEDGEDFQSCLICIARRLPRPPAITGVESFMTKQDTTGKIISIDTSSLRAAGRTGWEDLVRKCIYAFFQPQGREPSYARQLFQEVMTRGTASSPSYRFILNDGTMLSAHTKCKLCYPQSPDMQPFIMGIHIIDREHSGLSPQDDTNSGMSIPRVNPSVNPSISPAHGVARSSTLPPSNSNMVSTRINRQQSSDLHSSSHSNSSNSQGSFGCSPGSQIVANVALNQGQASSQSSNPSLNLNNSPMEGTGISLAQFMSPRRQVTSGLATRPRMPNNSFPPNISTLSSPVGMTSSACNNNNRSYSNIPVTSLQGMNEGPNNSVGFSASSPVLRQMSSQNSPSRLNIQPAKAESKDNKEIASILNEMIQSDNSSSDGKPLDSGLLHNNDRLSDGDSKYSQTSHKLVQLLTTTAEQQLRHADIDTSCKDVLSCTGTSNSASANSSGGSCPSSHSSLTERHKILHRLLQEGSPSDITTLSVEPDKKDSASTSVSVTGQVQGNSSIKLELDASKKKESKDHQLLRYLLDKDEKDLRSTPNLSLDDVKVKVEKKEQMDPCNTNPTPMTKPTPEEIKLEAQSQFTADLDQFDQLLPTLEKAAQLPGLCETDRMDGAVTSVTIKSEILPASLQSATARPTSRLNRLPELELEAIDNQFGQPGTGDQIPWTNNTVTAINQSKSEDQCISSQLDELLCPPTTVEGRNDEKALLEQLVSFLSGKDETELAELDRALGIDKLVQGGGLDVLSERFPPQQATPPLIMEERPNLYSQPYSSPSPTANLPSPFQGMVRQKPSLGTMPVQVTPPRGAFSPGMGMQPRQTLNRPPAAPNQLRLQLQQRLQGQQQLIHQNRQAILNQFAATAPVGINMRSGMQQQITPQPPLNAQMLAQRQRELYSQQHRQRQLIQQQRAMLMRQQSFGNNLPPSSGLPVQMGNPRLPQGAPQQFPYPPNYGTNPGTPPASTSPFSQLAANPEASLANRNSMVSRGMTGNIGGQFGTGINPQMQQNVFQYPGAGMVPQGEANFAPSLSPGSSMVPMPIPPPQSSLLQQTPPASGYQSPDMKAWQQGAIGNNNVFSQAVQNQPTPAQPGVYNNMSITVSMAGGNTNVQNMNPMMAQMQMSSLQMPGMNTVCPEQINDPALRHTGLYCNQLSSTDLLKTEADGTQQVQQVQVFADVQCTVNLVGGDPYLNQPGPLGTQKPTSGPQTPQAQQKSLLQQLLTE

[2] = molecular target: T2, Hs65K (human) (UniProt Q96LT9); assay: co-IP; 293T cell lysate, 65K antibody (Proteintech 25820-1-AP) pre-conjugated to protein A-G magnetic beads; western blot
T2 sequence: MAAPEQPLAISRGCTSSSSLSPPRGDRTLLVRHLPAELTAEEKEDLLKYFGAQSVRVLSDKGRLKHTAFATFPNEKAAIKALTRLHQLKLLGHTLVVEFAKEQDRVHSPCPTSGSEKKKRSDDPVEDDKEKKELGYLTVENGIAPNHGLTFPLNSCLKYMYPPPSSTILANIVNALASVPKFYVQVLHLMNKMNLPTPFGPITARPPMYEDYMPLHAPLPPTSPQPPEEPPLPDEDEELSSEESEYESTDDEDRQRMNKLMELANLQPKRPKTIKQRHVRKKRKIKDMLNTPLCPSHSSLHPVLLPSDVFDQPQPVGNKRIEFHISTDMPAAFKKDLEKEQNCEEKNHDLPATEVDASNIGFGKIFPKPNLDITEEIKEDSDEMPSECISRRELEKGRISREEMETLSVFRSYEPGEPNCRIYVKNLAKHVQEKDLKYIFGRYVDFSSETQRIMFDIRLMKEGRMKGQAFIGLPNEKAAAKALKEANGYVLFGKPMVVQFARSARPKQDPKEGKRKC

[3] = molecular target: HDAC2 (human (endogenous in 293T)) (UniProt Q92769); assay: co-IP; 293T cells, precipitation with antibodies against HDAC1, HDAC2 or HDAC3, blot for Hs65K; also after shRNA knock-down of HsANKRD11 (fewer Hs65K)
[4] = molecular target: HDAC1 (human (endogenous in 293T)) (UniProt Q13547); assay: as above

binding [1]: no binding
Molecule: HDAC3 (from UniProt O15379 1-428) (enzyme)

binding [2]: binds
Molecule: NOCR1 (from UniProt O75376 1-2440)

binding [2]: no binding
Molecule: RAC3 (from UniProt Q9Y6Q9 1-1424)

binding [2]: no binding
Molecule: SRC1 (from UniProt Q15788 1-1441)

binding [2]: no binding
Molecule: TIF2 (from UniProt Q15596 1-1464)

binding [3]: no binding
binding [4]: no binding
binding [1]: binds
B1: Hs65K (protein, UniProt Q96LT9 1-517)
chain: T2 sequence

Source: publication PMC11304329
